# Test results taken from PubChem BioAssay AID588855 (National Center for Advancing Translational Sciences (NCATS), 2011).
# “And” between values parts separate entries of the source, which are not always exact repeats. Equal values may be shown once. In all, about 410,000 compounds went through this assay and about 5,000 (1.2%) were called active. Inconclusive means that the source gave no clear call. Such entries were picked first, then a sample of the others. Calls come from the whole dose curve; as a rule, active = well fitted inhibition curve with a large enough effect; inconclusive = small, poorly fitted or top-dose-only effect; inactive = no such curve, though single readings can be large or run the other way. Potencies of inconclusive entries are doubtful fits and often do not repeat.
# Test: qHTS for Inhibitors of TGF-b; note: nearly all actives have a fitted effect of over 65% in size
# Conditions: HepG2 CAGA-GFP TGF-b/SMAD3 reporter, GFP fluorescence, 18 h, TGF-beta stimulated, 500 pg/mL final; series mostly up to 46.1 µM
# Summary of the method: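 GFP signal (ex488/em500-530) from TGF-beta-stimulated HEPG2 CAGA-GFP cells, 500 pg/mL final, 18 h at 37 degrees C in DMEM plus 1% FBS, normalized to unstimulated and DMSO-stimulated controls.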
# Potency is the fitted concentration of half-maximal effect; tags give direction and shape of the fitted curve.
row,SMILES,Potency
1,CCN(CC)c1cc2c(cc1F)c(=O)c(S(=O)(=O)c1cccc(C)c1)cn2C,"inconclusive: 6.31 µM [inhibitor, single point]"
2,Cc1ccc(-c2cn(-c3cccc(Cl)c3)c(S(=O)(=O)CC(=O)Nc3ccccc3F)n2)cc1,"inconclusive: 7.94 µM [inhibitor, partial curve]"
3,Cc1ccc(-n2nc3c(=O)n(CCCC(=O)NCCc4ccccc4Cl)nc(C)c3c2C)cc1,"inconclusive: 0.447 µM [inhibitor, full curve, poor fit]"
4,O=c1[nH]c(SCc2ccc(Cl)cc2)nc2c1CCC2,inactive
5,COc1ccc(-c2nc(=S)c3ccc4ccccc4c3[nH]2)cc1,"inconclusive: 5.62 µM [inhibitor, single point]"
6,Cn1c(=O)c2cc(C(=O)NCCCN3CCN(c4ccccc4F)CC3)sc2c2ccccc21,"inconclusive: 0.562 µM [inhibitor, full curve, poor fit]"
7,CCOCCCN(C(=O)c1snc(C(N)=O)c1N)C(C(=O)NC1CCCC1)c1ccc(OC)cc1 (stereo not drawn),inactive
8,CCN(CC(=O)Nc1ccc2c(c1)OCCO2)C(=O)c1cc(S(=O)(=O)N2CCOCC2)ccc1F,inactive
9,CC(C)c1ccc(NS(=O)(=O)c2ccc3nc(-c4ccccc4)[nH]c3c2)cc1,"inconclusive: 17.8 µM [inhibitor, partial curve, poor fit]"
10,COc1ccc(NC(=O)N(C)[C@H]2C[C@H]3c4[nH]c5ccc(-c6ccc(OC)cc6)cc5c4CCN3C[C@H]2[C@H](C)O)cc1,"inconclusive: 35.5 µM [inhibitor, single point]"
11,COc1ccc(CCNC(=O)C2CCN(S(=O)(=O)N3CCC(C)CC3)CC2)cc1OC,inactive
12,O=S(=O)(c1ccccc1)N(CC(F)(F)F)c1ccc(C(O)(C(F)(F)F)C(F)(F)F)cc1,"inconclusive: 35.5 µM [inhibitor, single point] and inconclusive: 22.4 µM [inhibitor, single point]"
13,CCN1C(=O)[C@H]2[C@@H](c3ccc(OC)cc3)N3C(=O)CN(CC4CC4)C(=O)[C@@]3(C)[C@H]2C1=O,"inconclusive: 2.51 µM [inhibitor, partial curve, poor fit]"
14,COc1cccc(NC(=O)CN(C)C(=O)c2cccc(S(=O)(=O)N3CCN(c4ccccc4)CC3)c2)c1,"inconclusive: 35.5 µM [inhibitor, single point]"
15,O=C(CSc1ccc(Cl)cc1)N1CCC(c2nc3ccccc3s2)CC1,"inconclusive: 35.5 µM [inhibitor, single point]"
16,COc1ccc(CCNC(=O)c2ccc(Cn3c(=O)c4ccccc4n(Cc4cccc(Cl)c4)c3=O)cc2)cc1OC,"inconclusive: 6.31 µM [inhibitor, single point]"
17,O=C(CNc1cccc(S(=O)(=O)N2CCCC2)c1)Nc1ccc(F)cc1F,"inconclusive: 0.891 µM [inhibitor, full curve, poor fit]"
18,Clc1cccc(N/N=C(\Cc2nc3ccccc3[nH]2)c2ccccc2)c1,"inconclusive: 28.2 µM [inhibitor, single point]"
19,Cc1cc(C(=O)N2CCCC(N3CCN(c4ccccc4C)CC3)C2)no1 (stereo not drawn),inactive
20,CC1=C(C)CS(=O)N(S(=O)(=O)c2ccccc2)C1 (stereo not drawn),"inconclusive: 10 µM [inhibitor, partial curve]"
21,COc1ccc(C2C(C(=O)OCC3CCCO3)=C(C)NC3=C2C(=O)CC(c2ccco2)C3)cc1O (stereo not drawn),inactive

row,SMILES,Potency
1,O=C1C=C(c2ccc(Cl)c(C(F)(F)F)c2)C[C@@H](c2ccc(F)cc2)C1,"inconclusive: 25.1 µM [inhibitor, single point]"
2,CSc1nc(Sc2ccccc2Cl)c2ccccc2n1,"inconclusive: 14.1 µM [inhibitor, single point]"
3,CC(=O)c1c(C)oc2ccc(N(C(C)=O)S(=O)(=O)c3ccc(Br)cc3)cc12,"inconclusive: 7.94 µM [inhibitor, partial curve, poor fit]"
4,O=S(=O)(c1ccc(NCc2ccccc2)cc1)N1CCOCC1,"inconclusive: 25.1 µM [inhibitor, single point]"
5,CCc1nc(OCC(=O)c2ccccc2)c(C#N)c2c1COC(C)(C)C2,inactive
6,CC(=O)Nc1ccc(N(CC(O)Cn2c3ccccc3c3ccccc32)S(=O)(=O)c2ccc(C)cc2)cc1 (stereo not drawn),active: 14.1 µM
7,CCOc1cc(Br)cc(/C=N/NC(=O)c2cccnc2)c1O,"inconclusive: 0.794 µM [inhibitor, full curve]"
8,O=C(CSC1CC(=O)N(CC(c2ccccc2)c2ccccc2)C1=O)Nc1ccc(Cl)cc1 (stereo not drawn),"inconclusive: 35.5 µM [inhibitor, single point]"
9,CCC(Cc1ccccc1)NC(=O)C1CCN(S(=O)(=O)c2ccc3c(c2)CC(C)N3C(C)=O)CC1 (stereo not drawn),"inconclusive: 0.1 µM [inhibitor, full curve, poor fit]"
10,Cc1cccc(N2CCN(S(=O)(=O)c3csc(C(N)=O)c3)CC2)c1C,"inconclusive: 1.78 µM [inhibitor, full curve, poor fit]"
11,Cc1ccc(N(Cc2cccs2)C(=O)c2ccccc2Cl)cc1,"inconclusive: 3.16 µM [inhibitor, full curve, poor fit]"
12,Cc1cc(C(=O)Nn2c(C3CCCCC3)nc3ccccc3c2=O)ccc1[N+](=O)[O-],active: 20 µM
13,C1=C(CCNc2ncnc3nc[nH]c23)CCCC1,"inconclusive: 35.5 µM [inhibitor, single point]"
14,CCN1CCN(CCCNC(=O)c2ccc(/C=C3/Sc4ccccc4N(Cc4ccccc4F)C3=O)cc2)CC1,"inconclusive: 25.1 µM [inhibitor, single point]"
15,COc1cc(OC)c(-c2cc(C(=O)NCc3ccc(F)cc3)c3c(-c4ccccc4)[nH]nc3n2)cc1OC,"inconclusive: 15.8 µM [inhibitor, partial curve, poor fit]"
16,COc1ccc(C2CC(=O)N(C)c3ccccc3S2)cc1OC (stereo not drawn),inactive
17,Cc1ccc(F)cc1NC(=O)CSCc1nc2sc(C)c(C)c2c(=O)[nH]1,"inconclusive: 5.62 µM [inhibitor, single point]"
18,CC(=O)N1c2ccc(S(=O)(=O)N3CCCCCC3)cc2CC1C(=O)NCc1ccccc1C (stereo not drawn),"inconclusive: 11.2 µM [inhibitor, single point]"
19,COc1ccc(CNC(=O)C[C@H]2C(=O)N(Cc3ccc(OC)cc3)C[C@@H]2Cc2ccccc2)cc1,"inconclusive: 35.5 µM [inhibitor, single point] and inconclusive: 20 µM [inhibitor, partial curve, poor fit]"
20,COc1cccc(C(=O)NC2CCN(C(=O)N3c4ccccc4Sc4ccccc43)CC2)c1,inactive
21,O=c1[nH]cc([N+](=O)[O-])cc1Br,inactive

row,SMILES,Potency
1,Cc1ccc(/C=N/NC(=O)c2nc3nc(C)cc(C)n3n2)cc1,"inconclusive: 7.94 µM [inhibitor, partial curve]"
2,Clc1ccc2c(NCc3ccccn3)ncnc2c1,"inconclusive: 12.6 µM [inhibitor, partial curve, poor fit]"
3,C=CCN1CCOc2ccc(C)cc2S1(=O)=O,"inconclusive: 3.55 µM [inhibitor, single point]"
4,COc1ccc(CCNc2oc(-c3ccccc3OC)nc2C#N)cc1OC,"inconclusive: 35.5 µM [inhibitor, single point]"
5,Nc1ccc(Nc2nc(-c3cc4ccccc4oc3=O)cs2)cc1,"inconclusive: 25.1 µM [inhibitor, single point]"
6,COc1ccc(NC(=O)COC(=O)c2c3c(nc4ccccc24)CCCC3)cc1Cl,"inconclusive: 35.5 µM [inhibitor, single point]"
7,Cc1ccccc1-c1cc(C(=O)NCc2cccc(C(F)(F)F)c2)n(CC2CC(c3cccnc3)=NO2)n1 (stereo not drawn),"inconclusive: 25.1 µM [inhibitor, single point]"
8,COCCc1nnc(NC(=O)C(C)C)s1,"inconclusive: 1.58 µM [inhibitor, partial curve]"
9,CCCCOc1cccc(C(=O)N(Cc2ccc(N(C)C)cc2)C2CCS(=O)(=O)C2)c1 (stereo not drawn),inactive
10,Nc1ncnc2c1C(c1ccccc1)c1c(ccc3ccccc13)O2 (stereo not drawn),"inconclusive: 20 µM [inhibitor, single point]"
11,O=C(NC1CC1)C1=C[C@@H](c2coc3ccccc3c2=O)C[C@@H](OCc2ccc(CO)cc2)O1,"inconclusive: 0.708 µM [inhibitor, full curve, poor fit]"
12,C(=Nc1cnc2ccccc2c1)c1ccncc1,inactive
13,Cc1ccc(F)cc1NC(=O)C1CC(=O)N(Cc2ccccc2)C1 (stereo not drawn),"inconclusive: 3.16 µM [inhibitor, single point]"
14,NC(N)=N/N=C/c1ccc(OCc2ccccc2)c(OCc2ccccc2)c1,active: 17.8 µM
15,CCc1ccc(-c2cc(C)no2)cc1S(=O)(=O)N1CCOc2ccc(C)cc21,"inconclusive: 14.1 µM [inhibitor, single point]"
16,Cn1c(=O)c2c(nc(Cl)n2CC(=O)N2CCCCC2)n(C)c1=O,inactive
17,CCc1ccc2ncc(C(=O)c3ccc(C)c(C)c3)c(N3CCC(C(N)=O)CC3)c2c1,"inconclusive: 35.5 µM [inhibitor, single point]"
18,COC(=O)[C@H](C)NC(=O)Nc1cc(Cl)ccc1C,inactive
19,S=C1Nc2ccccc2Sc2ccc(Cl)cc21,inactive
20,Cc1cc(C(=O)Nc2cccnc2)no1,"inconclusive: 14.1 µM [inhibitor, single point]"
21,CCc1ccc(-c2nn(-c3ccccc3)cc2C2SCC(=O)N2Cc2ccco2)cc1 (stereo not drawn),inactive
